Experimental data from patent publication US8198268B2, “Tianeptine sulfate salt forms and methods of making and using the same” (Janssen Biotech, Inc., priority 2008, dated 2012).
Values after ≈ are worked out from the molar mass of the structure shown. Values joined by “and” are separate entries in the source; they are usually repeats but may differ in a detail not shown here. Equal entries are not always repeated. Structures can show the parent of a compound that is named as a salt. Where two headings read alike, the source gives them in different places.

Experiments:
[1] = about 25 degrees C.
physchem = settings: water, thermodynamic from solid

Compound | Equilibrium Form (pH 2) | Final pH (pH 2) | Equilibrium Form (pH 5) | Final pH (pH 5) | Solubility (pH 5) | Equilibrium Form (pH 6) | Final pH (pH 6) | Solubility (pH 6) | Equilibrium Form (pH 7) | Final pH (pH 7) | Solubility (pH 7) | Equilibrium Form (pH 8) | Final pH (pH 8) | Solubility (pH 8) | Solubility (pH 10) | Equilibrium Form (pH 1) | Solubility (pH 1) | Solubility (pH 2) | Equilibrium Form (pH 3) | Solubility (pH 3) | further results
CN1c2ccccc2C(NCCCCCCC(=O)O)c2ccc(Cl)cc2S1(=O)=O (stereo not drawn) [tianeptine sodium] | form I & II | 9.250 and 9.17 | form I & II | 8.45 | 1500 µg/mL | form II | 7.75 | 270 µg/mL | form II | 9.40 | 39530 µg/mL | form II | 8.92 | 85430 µg/mL | 43560 µg/mL |  |  |  |  |  | Final pH (pH 10): 10.20; relative humidity at which deliquescence began [1]: about 60 % relative humidity; water absorbed by mass at 90% relative humidity ([1]; 90% relative humidity): about 38%
CN1c2ccccc2C(NCCCCCCC(=O)O)c2ccc(Cl)cc2S1(=O)=O (stereo not drawn) [tianeptine hemisulfate monohydrate, 7-[(3-chloro-6,11-dihydro-6-methyldibenzo[c,f][1,2]thiazepin-11-yl)amino]heptanoic acid S,S-dioxide hemisulfate monohydrate] | sulfate |  | form II |  | 120 µg/mL |  |  | 100 µg/mL |  |  | 100 µg/mL |  |  | 360 µg/mL | 3610 µg/mL | sulfate | 330 µg/mL | 200 µg/mL | sulfate | 250 µg/mL | Final pH (pH 1, hemisulfate monohydrate): 1.4; Final pH (pH 2, hemisulfate monohydrate): 2.4; Final pH (pH 3, hemisulfate monohydrate): 3.0; Final pH (pH 5, hemisulfate monohydrate): 4.7; Final pH (pH 6, hemisulfate monohydrate): 5.5; Final pH (pH 7, hemisulfate monohydrate): 6.6; Final pH (pH 8, hemisulfate monohydrate): 7.6; Final pH (pH 10, hemisulfate monohydrate): 8.7; Solubility (physchem): < 1000 µg/mL; hygroscopicity (DVS analysis) ([1]; about 10% to about 90% relative humidity): non-hygroscopic
CN1c2ccccc2C(NCCCCCCC(=O)O)c2ccc(Cl)cc2S1(=O)=O (stereo not drawn) [tianeptine Form II, 7-[(3-chloro-6,11-dihydro-6-methyldibenzo[c,f][1,2]thiazepin-11-yl)amino]heptanoic acid S,S-dioxide] | form II | 2.47 | form II | 5.06 | 40 µg/mL (≈ 91.5 µM) | form II | 6.01 | 40 µg/mL (≈ 91.5 µM) | form II | 7.08 | 60 µg/mL (≈ 137 µM) | form II | 7.98 | 400 µg/mL (≈ 915 µM) | 9720 µg/mL (≈ 22200 µM) | HCl | 1360 µg/mL (≈ 3110 µM) | 2660 µg/mL (≈ 6090 µM) | form II | 830 µg/mL (≈ 1900 µM) | Final pH (pH 1): 1.17; Final pH (pH 3): 3.08; Equilibrium Form (pH 10): form II; Final pH (pH 10): 9.61
CN1c2ccccc2C(NCCCCCCC(=O)O)c2ccc(Cl)cc2S1(=O)=O (stereo not drawn) [tianeptine hydrochloride, 7-[(3-chloro-6,11-dihydro-6-methyldibenzo[c,f][1,2]thiazepin-11-yl)amino]heptanoic acid S,S-dioxide hydrochloride] | HCl |  | form II |  | 60 µg/mL | form II |  | 30 µg/mL | form II |  | 20 µg/mL | form II |  | 340 µg/mL | 2750 µg/mL | HCl | 3150 µg/mL | 7470 µg/mL | form II | 3810 µg/mL | Final pH (pH 1, hydrochloride): 1.4; Final pH (pH 2, hydrochloride): 2.2; Final pH (pH 3, hydrochloride): 2.5; Final pH (pH 5, hydrochloride): 4.4; Final pH (pH 6, hydrochloride): 5.3; Final pH (pH 7, hydrochloride): 6.4; Final pH (pH 8, hydrochloride): 7.4; Equilibrium Form (pH 10): form II; Final pH (pH 10, hydrochloride): 8.7; water absorbed by mass over the entire humidity range ([1]; about 0 to about 90 percent relative humidity): less than 2.5%; relative humidity range in which stable (DVS analysis) ([1]; about 0 to about 90 percent relative humidity, hydrochloride): at least 90 % relative humidity
